Measurements reported in the supplement of paper PMC7826260.
This is one part of the list. The data describe in vitro nicking of single-stranded DNA by Rep domains (1 h at 37 °C, 3 µM enzyme); the outer parts of the 90-letter strands are left off. A value is the log2 ratio of uncut reads to the pool without enzyme; more negative means more cut, near 0 not cut, and no call is made. Because reads are shares of a total, they shift together, so uncut sequences can rise above 0 when many others are cut.

Key:
Experiment in all cases: uncleaved DNA left, log2 of reads against the no-enzyme library (log2 ratio); higher = less cleavage (more negative = more Rep cleavage of the k-mer); sequences stand for … in CTCGTCCG…ACCGGAGA
[1] = tested on: T1, Rep nickase domain of Muscovy duck circovirus
T1 sequence (protein, residues 1-111, tag omitted): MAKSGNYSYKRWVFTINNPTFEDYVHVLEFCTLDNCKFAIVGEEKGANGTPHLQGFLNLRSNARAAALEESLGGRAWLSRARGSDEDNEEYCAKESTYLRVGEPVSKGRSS
Experimental: (§1)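 A pool of 90-nt single-stranded DNAs with seven random bases just before the constant AC of the nick site (name = the seven bases) was cut by 3 µM recombinant His6-SUMO-tagged Rep nickase domain (300 nM DNA, 50 mM HEPES pH 8.0, 50 mM NaCl, 1 mM MnCl2, 1 h, 37 °C, three replicates). Uncut DNA was amplified and sequenced.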

[2] = tested on: T2, Rep nickase domain of banana bunchy top virus
T2 sequence (protein, residues 1-94, tag omitted): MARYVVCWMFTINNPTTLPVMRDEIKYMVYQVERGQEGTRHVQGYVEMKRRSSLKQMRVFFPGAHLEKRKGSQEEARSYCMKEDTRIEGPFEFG
Experimental: as §1

[3] = tested on: T3, Rep nickase domain of cabbage leaf curl virus
T3 sequence (protein, residues 1-116, tag omitted): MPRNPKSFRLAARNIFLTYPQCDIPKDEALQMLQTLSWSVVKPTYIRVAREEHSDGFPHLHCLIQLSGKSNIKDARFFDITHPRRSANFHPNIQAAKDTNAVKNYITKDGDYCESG
Experimental: as §1

[4] = tested on: T4, Rep nickase domain of chickpea chlorotic dwarf virus
T4 sequence (protein, residues 1-124, tag omitted): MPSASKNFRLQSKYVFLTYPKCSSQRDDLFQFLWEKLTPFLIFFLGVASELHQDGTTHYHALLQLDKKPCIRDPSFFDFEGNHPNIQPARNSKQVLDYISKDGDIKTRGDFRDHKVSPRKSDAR
Experimental: as §1

[5] = tested on: T5, Rep nickase domain of faba bean necrotic yellows virus
T5 sequence (protein, residues 1-98, tag omitted): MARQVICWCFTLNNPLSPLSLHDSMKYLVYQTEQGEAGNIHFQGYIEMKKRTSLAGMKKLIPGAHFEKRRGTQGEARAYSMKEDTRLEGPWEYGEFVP
Experimental: as §1

[6] = tested on: T6, Rep nickase domain of maize striate mosaic virus
T6 sequence (protein, residues 1-117, tag omitted): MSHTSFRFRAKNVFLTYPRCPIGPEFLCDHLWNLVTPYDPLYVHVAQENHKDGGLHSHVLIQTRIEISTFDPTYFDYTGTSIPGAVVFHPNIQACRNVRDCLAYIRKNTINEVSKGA
Experimental: as §1

[7] = tested on: T7, Rep nickase domain of porcine circovirus 2
T7 sequence (protein, residues 2-116, tag omitted): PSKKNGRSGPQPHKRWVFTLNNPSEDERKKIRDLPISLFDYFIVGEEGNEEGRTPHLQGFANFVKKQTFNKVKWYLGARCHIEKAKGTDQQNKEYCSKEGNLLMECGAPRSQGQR
Experimental: as §1

[8] = tested on: T8, Rep nickase domain of tomato yellow leaf curl virus
T8 sequence (protein, residues 1-136, tag omitted): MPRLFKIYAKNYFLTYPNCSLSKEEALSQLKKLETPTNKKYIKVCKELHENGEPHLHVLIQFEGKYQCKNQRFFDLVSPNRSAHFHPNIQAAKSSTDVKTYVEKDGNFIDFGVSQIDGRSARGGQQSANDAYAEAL
Experimental: as §1

[9] = tested on: T9, Rep nickase domain of wheat dwarf virus
T9 sequence (protein, residues 1-137, tag omitted): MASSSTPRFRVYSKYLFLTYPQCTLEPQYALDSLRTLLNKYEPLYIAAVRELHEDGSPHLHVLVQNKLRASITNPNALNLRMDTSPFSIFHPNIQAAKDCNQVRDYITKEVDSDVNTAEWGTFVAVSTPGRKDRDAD
Experimental: as §1

| Sequence | uncleaved DNA left (log2) [1] | uncleaved DNA left (log2) [2] | uncleaved DNA left (log2) [3] | uncleaved DNA left (log2) [4] | uncleaved DNA left (log2) [5] | uncleaved DNA left (log2) [6] | uncleaved DNA left (log2) [7] | uncleaved DNA left (log2) [8] | uncleaved DNA left (log2) [9] |
| --- | --- | --- | --- | --- | --- | --- | --- | --- | --- |
| CGCTCAT | -0.0795 | -0.0828 | -0.0091 | -0.266 | -0.0976 | -0.273 | -0.405 | 0.0734 | 0.0272 |
| TTTCGGC | 0.0355 | -0.0737 | 0.223 | 0.24 | 0.0017 | -0.0415 | 0.0605 | -0.149 | 0.0145 |
| TCTTGTC | 0.0844 | -0.128 | -0.0774 | -0.546 | 0.0437 | -0.926 | 0.0751 | 0.0164 | 0.0296 |
| TGCCATT | -0.00226 | -0.0256 | 0.237 | -0.584 | -0.0122 | 0.0913 | -0.185 | -0.0294 | 0.171 |
| AGTAAGA | -0.0901 | -0.00436 | 0.0148 | -0.0695 | 0.028 | -0.851 | -0.0559 | 0.0482 | -0.00545 |
| TTAGTGT | 0.142 | 0.0767 | 0.00913 | -0.367 | 0.0589 | -0.468 | 0.127 | 0.138 | -0.00291 |
| TGTCTCA | 0.043 | -0.036 | 0.23 | 0.0317 | -0.0016 | 0.72 | -0.000565 | 0.0671 | 0.0746 |
| CGGTGTC | -0.0379 | -0.157 | 0.288 | 0.286 | -0.00107 | 0.149 | -0.00721 | 0.0386 | -0.0142 |
| CCTGCCC | -0.0101 | -0.0847 | -0.0733 | -0.286 | -0.0558 | -0.399 | -0.0763 | -0.0931 | -0.182 |
| CCTTGGT | -0.101 | -0.0113 | -0.0229 | -0.349 | 0.0879 | -0.538 | -0.922 | 0.0964 | 0.0162 |
| GGAGAAT | 0.0946 | 0.0835 | 0.83 | 1.9 | 0.128 | 2.25 | 0.229 | 0.0414 | 0.159 |
| TCACCTG | -0.0787 | -0.0621 | -0.0947 | -0.213 | 0.0102 | 0.267 | 0.02 | -0.0841 | -0.0218 |
| CGGGTTA | 0.0103 | -0.0302 | 0.264 | 0.147 | -0.0618 | 0.988 | -0.0786 | -0.161 | -0.12 |
| CTTCCTC | -0.0699 | -0.0667 | 0.0336 | -0.311 | -0.0421 | -0.434 | -0.201 | -0.0475 | -0.0602 |
| GGCTGCA | 0.0784 | -0.175 | 0.07 | 0.682 | -0.129 | 0.72 | -0.0417 | -0.0999 | -0.148 |
